According to PubChem BioAssay AID588855 (National Center for Advancing Translational Sciences (NCATS), 2011):
In all, about 410,000 compounds went through this assay and about 5,000 (1.2%) were called active. The shares of active, inactive and inconclusive entries below differ from those in the screen. The call rests on the fitted dose curve; in most records, active means well fitted inhibition curve with a large enough effect; inconclusive means small, poorly fitted or top-dose-only effect; inactive means no such curve, though single readings can be large or run the other way. Potencies beside an inconclusive call are fits to weak or partial responses and may not hold up.

Experiment: qHTS for Inhibitors of TGF-b; further: nearly all actives have a fitted effect of over 65% in size
Conditions: HepG2 CAGA-GFP TGF-b/SMAD3 reporter, GFP fluorescence, 18 h, TGF-beta stimulated, 500 pg/mL final; series mostly up to 46.1 µM; activity, negative = inhibition: at the top concentration
In short: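 Inhibition of TGF-beta-driven CAGA-GFP reporter expression in HEPG2 cells is measured by cellular GFP fluorescence after 18 h stimulation with 500 pg/mL recombinant TGF-beta in 1% FBS medium at 37 degrees C.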
On the % scale 0 is the no-effect control and ±100 the full control effect; potency means the concentration at half of the fitted maximal effect; tags describe the fitted curve by direction and shape.

SMILES | Potency | activity, negative = inhibition
C=CCN1C(=O)C(CC(=O)Nc2ccccc2)SC1=Nc1c(C)n(C)n(-c2ccccc2)c1=O (stereo unspecified) | inconclusive: 15.8 µM [inhibitor, single point] | 
CC(C)n1cnc2c(Nc3cccc(Cl)c3)nc(N(CCO)CCCO)nc21 | inconclusive: 35.5 µM [inhibitor, single point] | 
COc1ccccc1N1CCN(C(=O)CCNS(=O)(=O)c2ccc(Br)s2)CC1 | inconclusive: 0.355 µM [inhibitor, partial curve, poor fit] | 
Cc1ccc2c(N)c(C(=O)c3ccccc3)sc2n1 | inconclusive: 14.1 µM [inhibitor, single point] | 
CCOC(=O)[C@@H]1[C@H]2COc3cc(OC)ccc3[C@H]2N2C(=O)N(c3ccc(C(F)(F)F)cc3)C(=O)[C@]12C | inconclusive: 25.1 µM [inhibitor, single point] | 
COc1ccccc1NC(=O)c1cc2n(n1)C(C(F)(F)F)CC(c1ccc3c(c1)OCO3)N2 (stereo unspecified) | inconclusive: 0.1 µM [inhibitor, full curve, poor fit] | 
Cc1nn(-c2ccc(F)cc2)c(Cl)c1/C=C1\C(=O)Nc2ccccc21 | inconclusive: 6.31 µM [inhibitor, single point] | 
CCN1CCN(C(=O)Cn2nc(C)c3sc4ccccc4c3c2=O)CC1 |  | inactive: 10.4%
O=c1[nH]c(=S)[nH]c2c1C(c1ccc(Cl)cc1)OC(C1CCCCC1)C2 (stereo unspecified) | inconclusive: 12.6 µM [inhibitor, partial curve, poor fit] | 
O=C(O)C1OC1(c1ccccc1Cl)c1ccccc1Cl (stereo unspecified) | inconclusive: 22.4 µM [inhibitor, single point] | 
NNc1nc2c(-c3cccc(C(F)(F)F)c3)nnn2c2ccccc12 | inconclusive: 15.8 µM [inhibitor, partial curve, poor fit] | 
Cc1ccc(S(=O)(=O)NC(=O)c2ccccc2)cc1C(C)C |  | inactive: 17%
CCCCCC(=O)N1C[C@H](n2cc(COC(=O)c3ccccc3)nn2)[C@@H](O)C[C@@H]1c1ccc(Cl)cc1 | inconclusive: 17.8 µM [inhibitor, single point] | 
COc1ccc(C(=O)NCC(=O)Nc2cccc(S(=O)(=O)N3CCCC3)c2)cc1 | inconclusive: 6.31 µM [inhibitor, single point] | 
CCN(CC)CCN(C(=O)c1ccc2c(c1)CCCC2)c1nc2ccc(OC)cc2s1 | inconclusive: 15.8 µM [inhibitor, single point] | 
Cc1ccc2c(c1)-c1nc3ccccc3cc1C2=NC1CCCCC1 | inconclusive: 35.5 µM [inhibitor, single point] | 
CCOC(=O)N1CCN(CC(=O)Nc2sc(CC)cc2C(=O)c2ccc(OC)cc2)CC1 | inconclusive: 35.5 µM [inhibitor, single point] | 
Cc1ccc(Cn2ncc3c(NN)ncnc32)cc1 | inconclusive: 11.2 µM [inhibitor, single point] | 
Cc1ccc(NC(=O)CSc2nnc([C@@H]3CCCN3C(=O)OC(C)(C)C)o2)c(C)c1 | inconclusive: 35.5 µM [inhibitor, single point] | 
O=S(=O)(c1cccc(Cl)c1)N1CCN(c2nc(-c3ccccc3)nc3ccccc23)CC1 |  | inactive: 1.46%
COc1cc(OC)c(N(C)C(=O)c2cc3c(=O)oc4ccccc4c3s2)cc1Cl | inconclusive: 6.31 µM [inhibitor, single point] | 

SMILES | Potency | activity, negative = inhibition
COc1cc(OC)c(N(C)S(=O)(=O)c2cccc(C(=O)Nc3nnc(C4CC4)s3)c2)cc1Cl | inconclusive: 35.5 µM [inhibitor, single point] | 
Cc1ccc(-n2nc(C(=O)N(C)Cc3ccccc3)c3c4ccccc4n(C)c3c2=O)cc1 | inconclusive: 35.5 µM [inhibitor, single point] | 
CN(Cc1ccccc1)S(=O)(=O)c1ccc(N2CCCC2=O)cc1 | inconclusive: 12.6 µM [inhibitor, partial curve, poor fit] | 
COc1ccc(C)cc1NC(=O)C(OC(=O)c1ccc([N+](=O)[O-])o1)c1ccccc1 (stereo unspecified) | inconclusive: 31.6 µM [inhibitor, single point] | 
Cc1ccc(C(=O)N(c2ccc(C)cc2)S(=O)(=O)c2ccc(Cl)cc2)cc1 | inconclusive: 22.4 µM [inhibitor, single point] | 
CSC(=S)N/N=C/c1c[nH]c2ccccc12 | inconclusive: 35.5 µM [inhibitor, single point] | 
COc1ccc2c(c1)CC/C(=C\C=C\c1ccccc1)C2=O | inconclusive: 6.31 µM [inhibitor, single point] | 
COc1ccc(CNC(=O)C2CCCN(S(=O)(=O)c3cnc[nH]3)C2)cc1 (stereo unspecified) | inconclusive: 6.31 µM [inhibitor, single point] | 
c1ccc2c(c1)oc1c(N3CCN(Cc4ccc5c(c4)OCO5)CC3)ncnc12 | inconclusive: 25.1 µM [inhibitor, single point] | 
CCCn1c(N)c(C(=O)CN(C)CC(=O)Nc2ccccc2C(F)(F)F)c(=O)[nH]c1=O | inconclusive: 11.2 µM [inhibitor, partial curve, poor fit] | 
O=C1NC[C@H](c2ccccc2)OC(=O)[C@@H](Cc2ccc(F)cc2)C/C=C\C[C@H]1CC(=O)N(CCO)Cc1ccccc1 | inconclusive: 22.4 µM [inhibitor, single point] | 
Cn1c(=O)[nH]c(=O)c2c1nc(CN1CCN(c3cccc(Cl)c3)CC1)n2CCCc1ccccc1 | inconclusive: 10 µM [inhibitor, partial curve] | 
COc1ccccc1NC(=O)CSC1=Nc2ccccc2C2=NC(CC(=O)NCc3ccc4c(c3)OCO4)C(=O)N12 (stereo unspecified) | inconclusive: 35.5 µM [inhibitor, single point] | 
CCOC(=O)c1noc2ncnc(NCc3ccccc3OC)c12 | inconclusive: 0.199 µM [inhibitor, full curve, poor fit] | 
COc1ccccc1NC(=O)CCN1CCN(c2ccc(Cl)cc2)CC1 | inconclusive: 25.1 µM [inhibitor, single point] | 
O=C(NCCOCCn1c(=O)oc2ccccc21)Nc1cccc(Cl)c1 | inconclusive: 5.01 µM [inhibitor, partial curve, poor fit] | 
O=C1NC[C@H](Cc2ccccc2)N(CCc2cccc(F)c2)C1=O |  | inactive: 8.62%
CCN(CC)S(=O)(=O)c1cccc(C(=O)N/N=C/c2ccc([N+](=O)[O-])o2)c1 | inconclusive: 3.55 µM [inhibitor, full curve, poor fit] | 
O=C(CCN1CCN(Cc2ccccc2)CC1)Nc1ccc(OCc2ccccc2)cc1 |  | inactive: 5.4%
CSc1cccc(NC(=S)N(CCCN2CCCC(C)C2)Cc2cccs2)c1 (stereo unspecified) | inconclusive: 35.5 µM [inhibitor, single point] | 
COc1ccc(-n2c(N)c(C(=O)NCC3CCCO3)c3nc4ccccc4nc32)c(OC)c1 (stereo unspecified) | inconclusive: 35.5 µM [inhibitor, single point] | 

SMILES | Potency | activity, negative = inhibition
CCCCCCn1nc(C(=O)OCC(=O)c2c(N)n(C)c(=O)n(C)c2=O)c2ccccc2c1=O | inconclusive: 25.1 µM [inhibitor, single point] | 
Cc1ccc(N2CCN(C(=O)NCc3noc4ccc(C)cc34)CC2)c(C)c1 | inconclusive: 35.5 µM [inhibitor, single point] | 
Cc1nn2c(Nc3ccccc3)c3c(nc2c1-c1ccccc1)CCC3 | inconclusive: 0.112 µM [inhibitor, full curve, poor fit] | 
CCCCCn1c2c(c(=N)c3ccccc31)CCC2 | inconclusive: 3.55 µM [inhibitor, partial curve, poor fit] | 
O=C(CCC1N=C2c3ccccc3N=C(SCC(=O)Nc3ccc(F)cc3)N2C1=O)NCc1cccs1 (stereo unspecified) |  | inactive: 79.3%
Cc1nc2c(O)c3c(c(O)c2nc1C)C1C=CC3CC1 | inconclusive: 22.4 µM [inhibitor, single point] | 
CCOC(=O)N1CCc2c(sc(NCc3cccs3)c2C(=O)Nc2ccc(OC)cc2OC)C1 | active: 10 µM | 
COc1cccc(C(=O)NCC2(c3ccc(OC)c(OC)c3)CCCC2)c1 |  | inactive: -0.0238%
C[C@]12c3[nH]c4cc(-c5ccco5)ccc4c3CCN1C(=O)[C@@H](CC(=O)NCCC1=CCCCC1)C[C@@H]2C(=O)N1CCCCC1 | inconclusive: 11.2 µM [inhibitor, partial curve, poor fit] | 
CC(Oc1ccc(F)cc1)C(=O)Nc1nc(-c2ccccn2)cs1 (stereo unspecified) | inconclusive: 35.5 µM [inhibitor, single point] | 
COc1ccccc1N1CCN(S(=O)(=O)CCNC(=O)Cc2ccc(Cl)cc2)CC1 | inconclusive: 31.6 µM [inhibitor, single point] | 
Nc1ccc2oc(-c3ccccc3Cl)cc(=O)c2c1O | inconclusive: 11.2 µM [inhibitor, single point] | 
O=C(Nc1ccccc1)c1cc(C2COCCN2C(=O)CCCc2ccccc2)on1 (stereo unspecified) |  | inactive: -26.3%
Cc1snc(S(=O)(=O)/C(C#N)=N/Nc2ccc(C(F)(F)F)cc2)c1C#N | active: 10 µM | 
Cc1ccc(C)c(Nc2nn3c(=O)c4cc5c(cc4nc3s2)OCO5)c1 |  | inactive: -4.76%
CCCNC1=C(N(C(C)=O)c2cccc(F)c2)C(=O)c2ccccc2C1=O | inconclusive: 2.82 µM [inhibitor, partial curve, poor fit] | 
Cc1ccc(N=c2ssnc2Cl)cc1 | inconclusive: 14.1 µM [inhibitor, partial curve] | 
COC(=O)c1ccccc1NC(=O)COC(=O)CO/N=C(\C)c1ccc2c(c1)OCO2 |  | inactive: 12.5%
C[C@H](CO)N1C[C@H](C)[C@H](CN(C)S(=O)(=O)c2cn(C)cn2)Oc2ccc(NC(=O)Nc3ccc(C(F)(F)F)cc3)cc2CC1=O | inconclusive: 11.2 µM [inhibitor, single point] | 
